From the supplement of paper PMC3334620
Over roughly 33,000 sequences, “E-score (-0.5 to 0.5)” has its median near -0.043; the highest 2% begin near 0.37. Some of the results follow.

The sequences below were run against T1, Upc2 (UniProt Q12151) (assay: PBM E-score (8-mer binding enrichment) (E-score (-0.5 to 0.5)); higher = stronger / more preferred TF binding; most listed sequences are background and not binding sites). Conditions: protein concentration: 200 nM; construct: GST-full length.
T1 sequence: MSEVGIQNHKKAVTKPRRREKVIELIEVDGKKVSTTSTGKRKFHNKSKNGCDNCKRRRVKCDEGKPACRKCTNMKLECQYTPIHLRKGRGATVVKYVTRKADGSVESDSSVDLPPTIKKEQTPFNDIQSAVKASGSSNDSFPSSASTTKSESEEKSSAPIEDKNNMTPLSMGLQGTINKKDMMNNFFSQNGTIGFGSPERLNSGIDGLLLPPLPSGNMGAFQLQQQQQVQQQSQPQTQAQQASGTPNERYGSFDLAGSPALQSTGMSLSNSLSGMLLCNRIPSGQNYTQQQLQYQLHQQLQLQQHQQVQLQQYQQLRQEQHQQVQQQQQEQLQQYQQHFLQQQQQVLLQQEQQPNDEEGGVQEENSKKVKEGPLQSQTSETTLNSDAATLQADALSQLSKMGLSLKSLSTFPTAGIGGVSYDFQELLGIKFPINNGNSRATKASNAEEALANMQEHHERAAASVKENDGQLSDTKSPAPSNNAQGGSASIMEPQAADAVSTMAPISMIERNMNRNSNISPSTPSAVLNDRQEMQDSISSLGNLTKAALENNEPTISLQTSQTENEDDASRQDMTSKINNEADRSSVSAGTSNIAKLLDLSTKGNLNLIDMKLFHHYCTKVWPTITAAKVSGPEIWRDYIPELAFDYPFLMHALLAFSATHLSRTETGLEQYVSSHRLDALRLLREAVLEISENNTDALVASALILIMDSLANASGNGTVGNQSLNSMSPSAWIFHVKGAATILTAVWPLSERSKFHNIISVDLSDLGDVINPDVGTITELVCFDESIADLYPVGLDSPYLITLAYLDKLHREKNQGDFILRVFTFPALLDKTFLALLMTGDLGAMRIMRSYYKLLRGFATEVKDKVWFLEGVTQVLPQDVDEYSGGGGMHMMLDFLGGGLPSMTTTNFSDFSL
Method: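 Universal 'all 10-mer' protein binding microarrays (Agilent AMADID 015681) probed with GST-tagged S. cerevisiae TFs (full-length or DBD) made by in vitro transcription/translation (PURExpress), about 100-200 nM. Bound TF was detected with fluorescent anti-GST. Each ungapped 8-mer (which stands for itself and its reverse complement) is scored by the PBM enrichment score (E-score), a modified Wilcoxon-Mann-Whitney statistic from -0.5 to +0.5, computed with the Universal PBM Analysis Suite. Scale: above 0.35 generally sequence-specific binding.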

Sequence | PBM E-score
AGGGTGAC | -0.128
GACCTTAA | -0.0857
CTATATCC | -0.175
ATATCCTC | -0.156
CGACATTC | 0.23
AGAGTACT | -0.111
CAACTTGG | 0.147
AGGGTGAG | -0.254
CCATGACA | -0.184
CTGCTGGA | -0.353
ATAAACTC | 0.0451
ACCTATTA | -0.0505
ACAAGCCA | -0.042
CAGTATCG | 0.028
ATTCATAA | -0.0501
CCGCACAG | 0.00333
CGGCAAGC | 0.0794
CCCTGGCG | -0.196
CTCGTGCC | 0.0725
AGGCAATG | -0.0822
AGGCAGCA | -0.0524
AAGGTGAT | -0.095
CGTGCCAG | -0.166
AATATAAT | -0.0761
CCGACGAC | 0.0759

Sequence | PBM E-score
ACCACAAA | -0.00424
CCTTAGAC | -0.117
CTCCATTA | -0.232
CCTACGCA | -0.196
GCCATCAA | -0.107
CGTCTTCC | -0.142
TAACTTGA | -0.0099
AGCCTACT | -0.16
ATCGTCCC | -0.0699
AACCTCGC | 0.0636
CCCTCCAG | -0.196
GACCGAGA | 0.132
GTTGCCGA | 0.16
AAGCGTCG | 0.0443
CGATGCTA | 0.0925
CATGACAC | -0.12
CCAACATA | 0.0425
CAAGTCTG | -0.272
CCCTAAGC | -0.175
CGTGCGCA | -0.0833
CAGGGTGA | -0.223
AGTCGCTC | 0.0535
CAGCATTC | -0.11
ATCTGAAC | -0.0198
ACTTCTGG | -0.261

Sequence | PBM E-score
ACTTTGTG | 0.0538
GTTACATA | 0.0177
ACCAAATA | 0.0597
CGCCACGA | 0.0284
GCCTGCAC | -0.357
ACGCGGGA | 0.108
CGTCTACA | 0.0307
AACGGATG | 0.224
GTTCGGTA | 0.173
TGGCCGAA | -0.177
CTCTCATA | -0.0662
ACACCGTA | 0.321
ACTTCGCA | 0.0859
CCTCATCC | -0.322
CAGGTAGC | -0.228
TAATTGTA | 0.0856
AGAACCTC | -0.1
CTGGGGAA | -0.182
ATCATCAC | -0.158
CCGTAGCG | 0.28
TCTCAGAA | -0.17
CAATGCGC | 0.121
TGGGAAAA | -0.0994
AAGCATTA | -0.0439
AATATTGA | 0.0921

Sequence | PBM E-score
TCAAGTGA | -0.0301
CTACGGGC | -0.0221
AGATGACT | -0.19
AATATTCG | 0.221
AGGCCTCG | 0.219
GCAAACGC | 0.25
GACGTGCA | 0.118
CCCTACCC | -0.126
TAGTAGGA | -0.178
ACTAACAA | -0.0788
TCCAACAA | -0.0912
GACGTATC | 0.156
CAATCTCG | 0.0217
AAGGACGA | -0.0591
ATGCTCCA | -0.3
GAATTCGC | 0.138
CGACGCCG | 0.15
AAAAGAGG | 0.076
GCTTTGAC | 0.0261
ACCGGGCC | -0.232
ACCGACAC | 0.184
AGGTATAC | 0.339
CCGACCAC | 0.0689
ACTAGGAC | -0.329
AACTCTGA | -0.0442

Sequence | PBM E-score
AGATCTTG | -0.165
AACCAGAA | 0.0231
GAAAGTGA | -0.189
CTGAATTA | -0.193
CTGCTAGC | -0.416
AAATTACT | -0.0283
AGCGCAAT | -0.0325
CAATATAG | -0.179
CTGCACTA | -0.128
AGGCATAA | -0.104
GTGCACAA | 0.07
ATTGTCTG | 0.0222
ATGGTCGG | 0.0956
AGTACCGC | 0.1
CAGAAAGC | 0.00144
AAGTCCGT | 0.0895
GGTTTAAA | 0.0625
ACGTCGAA | 0.245
CAATTCCA | -0.17
CGTTATGC | 0.0408
CTTACTGA | 0.0118
ATCTACAC | 0.0161
CCCGATAG | -0.0572
ACTTTGTA | -0.0703
CGGCCTAC | -0.162

Sequence | PBM E-score
GAAGTAGA | 0.081
ACAAGCAT | -0.216
ATGCTGAC | -0.0796
CGATGCTC | -0.00541
TCACTGCA | -0.074
TAAACGGA | 0.454
AGCCACAG | -0.208
CCCCTACC | -0.0757
ACAAAAAG | 0.152
ACTTTTAT | -0.158
AATAAGAT | 0.0502
TGGGTACA | -0.0942
TAGCGTGA | 0.0193
ATCATTTG | -0.11
GGGTAATA | -0.0141
CGATACGA | 0.464
CAGCAAAC | 0.132
CCCTACTA | -0.242
GATATGTA | -0.0962
CATTGAAG | -0.151
TTAGCGAA | 0.29
CGGCTCGC | 0.181
ATGCCCGC | 0.0745
CACATGAG | -0.288
CAACTACC | -0.158

Sequence | PBM E-score
CGAGCGCA | 0.223
TAGACGCA | 0.00606
ACTTAAAC | 0.319
GCCAGCAC | -0.284
TCCGGAAA | -0.03
CGCACCCG | 0.141
TCGACGAA | -0.018
GTTAGGAA | -0.00483
AGGGCAAA | -0.0746
GCGCAAAC | 0.192
GCTGCAAC | -0.107
ATGTGTTC | -0.129
AGCGAGGA | 0.144
CATGAAAG | 0.014
CATACGGA | 0.365
CCGGGCGC | -0.144
ACAATTTG | -0.00417
AAACTGTA | 0.192
GGTGGGGA | -0.0568
AGTGTAAT | -0.109
CACTAAAC | 0.213
AAACGGCG | 0.401
